Measurements: the RNAGym collection of RNA variant scans (doi:10.7554/elife.90254)
Read counts are not given, so values of variants with three or more changes are uncertain.

B1: LINE1-mini (parent)
chain: GGCAGAGCUCAACACAGCGUGGCAAAGUGGCUGUGGCUAGACUGCC

Variants of: B1
Experiment: self-cleavage, relative activity (ratio to wild type); higher = more cleavage; in vitro, sequencing; the parent is a self-cleaving ribozyme

Row | Variant | self-cleavage
1 | C10A A25U U28G U43C | 0.01
2 | A11U C18A C42U | 0.05
3 | G2U G7A G17U G30C G35C A39U | 0.02
4 | A6C A11G G27A U38C | 0.03
5 | G1C G30U G35U | 0.02
6 | U32G A39U C45G | 0.04
7 | A6U C10U U38A | 0.05
8 | G1A C3U A25U G29A U34C | 0.22
9 | C18G C31A C37U C45A | 0.09
10 | G1A U28A U32G | 0.01
11 | A4G A11C C31U A41C | 0.02
12 | C3G A6U A25U G33U A39C | 0.14
13 | C10G G21A G22C A39U | 0.08
14 | C13A G17U C37U C45G | 0.09
15 | G2U G17C C18G C42G C45U | 0.01
16 | C8U C18G C23U G35U | 0.08
17 | G7C C8U G21A A26U | 0.19
18 | G5C G17A C23A A41G | 0.01
19 | G35U G36A G44U | 0.17
20 | C10A G22A A25G C31U | 0.01
21 | C3G A14C U28G G29A | 0.03

Row | Variant | self-cleavage
22 | C37U U38C C42A | 0.08
23 | G1A A16U C23U | 0.25
24 | G7A G19C G33A | 0.1
25 | C31G G33U C37A C46A | 0.03
26 | C10A C18A G19C U43A | 0.02
27 | C8G A14U G44A | 0.06
28 | C3A G21A C45U | 1.79
29 | A12U G40U U43A | 0.08
30 | A6C G19U C31U U32C C45G | 0.08
31 | A4G C8U C46A | 0.45
32 | A25C G27U U28A C31G | 0.08
33 | A6C C18U C23A G27A U28G C37G | 0.02
34 | A12C A24C G30C C46U | 0.01
35 | C18A G33U G40C | 0.02
36 | G1C A6C U9G G30C G35A | 0
37 | G2U C8A G21C U32G G35A | 0.05
38 | G5A G36U G44C | 0.13
39 | A4C U28A U32C G33U | 0.03
40 | G17A C42A G44C | 0.07
41 | U28G G30A U34G C46U | 0.21
42 | G29A G36C U38C A39C | 0.04

Row | Variant | self-cleavage
43 | C3A C15U A26C G40U | 0.21
44 | G19U C42A U43A C46G | 0.02
45 | C8U A16U G19C A24U G29C G35C | 0
46 | A6G A16C A39G G44U | 0.01
47 | C3A A14U U28C G40C | 0.81
48 | U28A C31U A39U C46A | 0.32
49 | G1A C8U U28A | 1.1
50 | A4G U38A G40C | 0.12
51 | G19U G27A G35A | 0.07
52 | G2C A24G G29U | 0.2
53 | A6U G7U A24G | 0.07
54 | C10A A16G A25G G35U C37U | 0.01
55 | A14U C18A A25U G33A A39G | 0.04
56 | G1C U9C A24U U32C A41G | 0.01
57 | G5U A26C G33A | 0.06
58 | G5A C15A G40C | 0.04
59 | C10A A16U A26U | 0.02
60 | C10A G17C G21U | 0.09
61 | C10A C15G C18A G30A G33A C42G | 0.02
62 | U9C A14G G17U | 0.02
63 | C10A A16U U20G U34G | 0.01

Row | Variant | self-cleavage
64 | G2A A4G C8U G19C G22C C23G C37U | 0.01
65 | C3G G17C G19U U32G G33A G36A A39U C45A | 0.04
66 | A11U G21C A25G G30U G33A | 0
67 | A6C A11U U34C C45A | 0.02
68 | G5A C8A C13U U28C | 0.8
69 | C18A G27U C37A | 0.09
70 | G1C G2A C18G G21C U38C A41U | 0.04
71 | G5U C15U G17C G19C | 0.06
72 | G5U U9G C46U | 0.04
73 | G21U A26U G35U | 0.02
74 | U9G G17A C42A U43G G44A | 0.09
75 | G35C U38G A39U | 0.02
76 | U9G A11U C37A | 0.03
77 | G2U A11U G22C A26G U43C C46A | 0
78 | A11U A14C C18U U28G G29C G35C U43G | 0
79 | G5C A6U C13U C46U | 0.07
80 | G7C C18A G21U | 0.08
81 | C10A C37U G44C | 0
82 | U9A C18G A25G | 0.18
83 | G2U G7C A11U A25U U34A G44C | 0
